Experimental data: PMC10163008 (Nature Communications, 2023)

System: CHLA-20 cells with ALK R1275Q/L1196M (CRISPR, in cis)
Test: Cell viability assay (Cell Titer-Glo, 120 h)
Type: cell-based, human
Settings: cell viability after 120 h of treatment

C[C@H]1Oc2cc(cnc2N)-c2c(nn(C)c2C#N)CN(C)C(=O)c2ccc(F)cc21 [lorlatinib, (10R)-7-amino-12-fluoro-2,10,16-trimethyl-15-oxo-10,15,16,17-tetrahydro-2H-8,4-(metheno)pyrazolo[4,3-h][2,5,11]-benzoxadiazacyclotetradecine-3-carbonitrile]
IC50: 0.277 ± 0.057 µM
